In the supplement of paper PMC10037445:
The full ranking holds about 2,900 compounds; the median of “NF-kB SEAP reporter activity, fold change vs agonist alone” is about 0.99, and the highest 2% start at about 2.6. The list shows a part of the results.

Key:
RAW-Dual [1] = assay: NF-kB SEAP reporter activity, fold change vs agonist alone; cytotoxicity flag (confluency mask): cytotoxic (confluency <70% of control); higher = enhanced NF-kB activity
Procedure, shortened: (§1)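 After 50 nL of library stock was delivered by pin tool to RAW-Dual macrophages (50,000 cells/well, DMEM, 384-well plates), a PRR agonist was added 1 h later and the plates were kept at 37 °C, 5% CO2. Twenty hours later, IRF was read from supernatant by QuantiLuc luminescence and NF-κB by QuantiBlue absorbance at 620 nm. Reporter activity is stated as fold change over agonist-alone wells. Wells with IncuCyte confluency under 70% of agonist controls in both mask sets were counted as cytotoxic.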

RAW-Dual [2] = assay: NF-kB SEAP reporter activity, fold change vs agonist alone; higher = enhanced NF-kB activity; conditions: library stock concentration (final ~1000-fold dilution): 10 mM
Procedure, shortened: as §1

RAW-Dual [3] = assay: NF-kB SEAP reporter activity, fold change vs agonist alone; cytotoxicity flag (confluency mask): not cytotoxic; higher = enhanced NF-kB activity
Procedure, shortened: as §1

[4] = agonist: ODN 1826 (TLR9) 0.5 ug/mL
[5] = agonist: Pam2CSK4 (TLR2/6) 0.1 ug/mL
[6] = agonist: Pam3CSK4 (TLR2/1) 0.1 ug/mL
[7] = cytotoxicity flag (confluency mask): cytotoxic (confluency <70% of control), agonist: Imiquimod (TLR7) […]
[8] = cytotoxicity flag (confluency mask): cytotoxic (confluency <70% of control), agonist: MPLA (TLR4) […]
[9] = cytotoxicity flag (confluency mask): not cytotoxic, agonist: Imiquimod (TLR7) […]
[10] = cytotoxicity flag (confluency mask): not cytotoxic, agonist: MPLA (TLR4) […]

In the case of `COc1cc2c(cc1OC)-c1cc3nc4ccccc4nc3n1C(C)(C)C2` (library stock concentration (final ~1000-fold dilution): 10 mM), the “NF-kB SEAP reporter activity” value (RAW-Dual [1]; agonist: LPS (TLR4) 0.1 ug/mL) is reported as 0.843, the “NF-kB SEAP reporter activity” value (RAW-Dual [1]; [4]) is reported as 0.2 and the “NF-kB SEAP reporter activity” value (RAW-Dual [1]; [5]) is reported as 0.183. For the same molecule, the “NF-kB SEAP reporter activity” value (RAW-Dual [1]; [6]) was 0.135.

For `COc1cc2c(cc1OC)-c1cc3nc4ccccc4nc3n1C(C)(C)C2`, the “NF-kB SEAP reporter activity” value (RAW-Dual [2]; [7]) was 0.621 and the “NF-kB SEAP reporter activity” value (RAW-Dual [2]; [8]) was 0.511.

`Oc1cc(O)c2c(c1)OC(c1ccc(O)c(O)c1)C(O)[C@H]2c1c(O)cc(O)c2c1OC(c1ccc(O)c(O)c1)C(O)C2` (some centres not stated) (library stock concentration (final ~1000-fold dilution): 10 mM) was tested, and the “NF-kB SEAP reporter activity” value (RAW-Dual [3]; agonist: LPS (TLR4) 0.1 ug/mL) was 1.28, the “NF-kB SEAP reporter activity” value (RAW-Dual [3]; [4]) was 1.06 and the “NF-kB SEAP reporter activity” value (RAW-Dual [3]; [5]) was 1.08. For the same molecule, the “NF-kB SEAP reporter activity” value (RAW-Dual [3]; [6]) was 1.17.

For `Oc1cc(O)c2c(c1)OC(c1ccc(O)c(O)c1)C(O)[C@H]2c1c(O)cc(O)c2c1OC(c1ccc(O)c(O)c1)C(O)C2` (some centres not stated), the “NF-kB SEAP reporter activity” value (RAW-Dual [2]; [9]) was 0.823 and the “NF-kB SEAP reporter activity” value (RAW-Dual [2]; [10]) was 1.01.

`Nc1cccc(-c2cc3c(Oc4cccc(O)c4)ncnc3[nH]2)c1` (library stock concentration (final ~1000-fold dilution): 10 mM) was tested, and the “NF-kB SEAP reporter activity” value (RAW-Dual [3]; agonist: LPS (TLR4) 0.1 ug/mL) was 0.316, the “NF-kB SEAP reporter activity” value (RAW-Dual [3]; [4]) was 0.796 and the “NF-kB SEAP reporter activity” value (RAW-Dual [3]; [5]) was 0.5. The “NF-kB SEAP reporter activity” value (RAW-Dual [3]; [6]) was 0.521.

`Nc1cccc(-c2cc3c(Oc4cccc(O)c4)ncnc3[nH]2)c1` was tested, and the “NF-kB SEAP reporter activity” value (RAW-Dual [2]; [9]) was 1.67 and the “NF-kB SEAP reporter activity” value (RAW-Dual [2]; [10]) was 0.913.

With `COc1ccc(C(C)=O)c(O)c1` (library stock concentration (final ~1000-fold dilution): 10 mM) the “NF-kB SEAP reporter activity” value (RAW-Dual [3]; agonist: LPS (TLR4) 0.1 ug/mL) was 1.28, the “NF-kB SEAP reporter activity” value (RAW-Dual [3]; [4]) was 0.98 and the “NF-kB SEAP reporter activity” value (RAW-Dual [3]; [5]) was 1.2. The “NF-kB SEAP reporter activity” value (RAW-Dual [3]; [6]) was 1.22.

With `COc1ccc(C(C)=O)c(O)c1` the “NF-kB SEAP reporter activity” value (RAW-Dual [2]; [9]) was 0.79 and the “NF-kB SEAP reporter activity” value (RAW-Dual [2]; [10]) was 1.04.

In the case of `COc1ccc(-n2nc(C(N)=O)c3c2C(=O)N(c2ccc(N4CCCCC4=O)cc2)CC3)cc1`, the “NF-kB SEAP reporter activity” value (RAW-Dual [2]; [9]) is reported as 1.07 and the “NF-kB SEAP reporter activity” value (RAW-Dual [2]; [10]) is reported as 1.02.

For `COc1ccc(-n2nc(C(N)=O)c3c2C(=O)N(c2ccc(N4CCCCC4=O)cc2)CC3)cc1` (library stock concentration (final ~1000-fold dilution): 10 mM), the “NF-kB SEAP reporter activity” value (RAW-Dual [3]; agonist: LPS (TLR4) 0.1 ug/mL) was 0.847, the “NF-kB SEAP reporter activity” value (RAW-Dual [3]; [4]) was 1.13 and the “NF-kB SEAP reporter activity” value (RAW-Dual [3]; [5]) was 1.07. The “NF-kB SEAP reporter activity” value (RAW-Dual [3]; [6]) was 1.12.

`Nc1ccc(F)cc1NC(=O)c1ccc(CNC(=O)/C=C/c2cccnc2)cc1` (library stock concentration (final ~1000-fold dilution): 10 mM) was tested, and the “NF-kB SEAP reporter activity” value (RAW-Dual [3]; agonist: LPS (TLR4) 0.1 ug/mL) was 3.7, the “NF-kB SEAP reporter activity” value (RAW-Dual [3]; [4]) was 3.18 and the “NF-kB SEAP reporter activity” value (RAW-Dual [3]; [5]) was 0.749. The “NF-kB SEAP reporter activity” value (RAW-Dual [3]; [6]) was 1.53.

For `Nc1ccc(F)cc1NC(=O)c1ccc(CNC(=O)/C=C/c2cccnc2)cc1`, the “NF-kB SEAP reporter activity” value (RAW-Dual [2]; [9]) was 1.65 and the “NF-kB SEAP reporter activity” value (RAW-Dual [2]; [10]) was 1.89.

In the case of `COc1ccc(COc2cc3oc(=O)c4cc(C(C)O)ccc4c3cc2OC)cc1` (configuration not stated), the “NF-kB SEAP reporter activity” value (RAW-Dual [2]; [9]) is reported as 1.21 and the “NF-kB SEAP reporter activity” value (RAW-Dual [2]; [10]) is reported as 1.09.

With `COc1ccc(COc2cc3oc(=O)c4cc(C(C)O)ccc4c3cc2OC)cc1` (configuration not stated) (library stock concentration (final ~1000-fold dilution): 10 mM) the “NF-kB SEAP reporter activity” value (RAW-Dual [3]; agonist: LPS (TLR4) 0.1 ug/mL) was 1.12, the “NF-kB SEAP reporter activity” value (RAW-Dual [3]; [4]) was 1.06 and the “NF-kB SEAP reporter activity” value (RAW-Dual [3]; [5]) was 1.06. The “NF-kB SEAP reporter activity” value (RAW-Dual [3]; [6]) was 1.03.

`CC/C=C\C/C=C\C/C=C\C/C=C\C/C=C\C/C=C\CCC(=O)NCCNC(=O)c1ccccc1O` (library stock concentration (final ~1000-fold dilution): 10 mM) was tested, and the “NF-kB SEAP reporter activity” value (RAW-Dual [1]; agonist: LPS (TLR4) 0.1 ug/mL) was 0.318, the “NF-kB SEAP reporter activity” value (RAW-Dual [1]; [4]) was 0.298 and the “NF-kB SEAP reporter activity” value (RAW-Dual [1]; [5]) was 0.133. The “NF-kB SEAP reporter activity” value (RAW-Dual [1]; [6]) was 0.184.

`CC/C=C\C/C=C\C/C=C\C/C=C\C/C=C\C/C=C\CCC(=O)NCCNC(=O)c1ccccc1O` was tested, and the “NF-kB SEAP reporter activity” value (RAW-Dual [2]; [7]) was 0.248 and the “NF-kB SEAP reporter activity” value (RAW-Dual [2]; [8]) was 1.54.

With `CC(C)C(NC(=O)C(CC(=O)O)NC(=O)C(CCCCN)NC(=O)C(N)CCCNC(=N)N)C(=O)NC(Cc1ccc(O)cc1)C(=O)O` (configuration not stated) the “NF-kB SEAP reporter activity” value (RAW-Dual [2]; [9]) was 1.14 and the “NF-kB SEAP reporter activity” value (RAW-Dual [2]; [10]) was 0.967.

`CC(C)C(NC(=O)C(CC(=O)O)NC(=O)C(CCCCN)NC(=O)C(N)CCCNC(=N)N)C(=O)NC(Cc1ccc(O)cc1)C(=O)O` (configuration not stated) (library stock concentration (final ~1000-fold dilution): 10 mM) was tested, and the “NF-kB SEAP reporter activity” value (RAW-Dual [3]; agonist: LPS (TLR4) 0.1 ug/mL) was 1.27, the “NF-kB SEAP reporter activity” value (RAW-Dual [3]; [4]) was 1.1 and the “NF-kB SEAP reporter activity” value (RAW-Dual [3]; [5]) was 1.19. For the same molecule, the “NF-kB SEAP reporter activity” value (RAW-Dual [3]; [6]) was 1.17.

`c1ccc(Cn2c(-c3ccc(OCC(C4CCNCC4)n4c(-c5ccccc5)nc5ccccc54)cc3)nc3ccccc32)cc1` (configuration not stated) was tested, and the “NF-kB SEAP reporter activity” value (RAW-Dual [2]; [9]) was 0.157 and the “NF-kB SEAP reporter activity” value (RAW-Dual [2]; [10]) was 0.247.

With `c1ccc(Cn2c(-c3ccc(OCC(C4CCNCC4)n4c(-c5ccccc5)nc5ccccc54)cc3)nc3ccccc32)cc1` (configuration not stated) (library stock concentration (final ~1000-fold dilution): 10 mM) the “NF-kB SEAP reporter activity” value (RAW-Dual [3]; agonist: LPS (TLR4) 0.1 ug/mL) was 0.204, the “NF-kB SEAP reporter activity” value (RAW-Dual [3]; [4]) was 0.181 and the “NF-kB SEAP reporter activity” value (RAW-Dual [3]; [5]) was 0.0667. The “NF-kB SEAP reporter activity” value (RAW-Dual [3]; [6]) was 0.138.

With `CCOC(=O)c1ccc(N2NC(=O)/C(=C/c3ccc([N+](=O)[O-])o3)C2=O)cc1` (library stock concentration (final ~1000-fold dilution): 10 mM) the “NF-kB SEAP reporter activity” value (RAW-Dual [3]; agonist: LPS (TLR4) 0.1 ug/mL) was 0.275, the “NF-kB SEAP reporter activity” value (RAW-Dual [3]; [4]) was 1.38 and the “NF-kB SEAP reporter activity” value (RAW-Dual [3]; [5]) was 0.609. The “NF-kB SEAP reporter activity” value (RAW-Dual [3]; [6]) was 0.528.

With `CCOC(=O)c1ccc(N2NC(=O)/C(=C/c3ccc([N+](=O)[O-])o3)C2=O)cc1` the “NF-kB SEAP reporter activity” value (RAW-Dual [2]; [9]) was 1.13 and the “NF-kB SEAP reporter activity” value (RAW-Dual [2]; [10]) was 1.08.

For `O=C(O)c1ccc(N2C(=O)/C(=C/c3ccc(-c4ccc([N+](=O)[O-])cc4)o3)C=C2c2ccccc2)cc1`, the “NF-kB SEAP reporter activity” value (RAW-Dual [2]; [9]) was 0.786 and the “NF-kB SEAP reporter activity” value (RAW-Dual [2]; [10]) was 0.817.

`O=C(O)c1ccc(N2C(=O)/C(=C/c3ccc(-c4ccc([N+](=O)[O-])cc4)o3)C=C2c2ccccc2)cc1` (library stock concentration (final ~1000-fold dilution): 10 mM) was tested, and the “NF-kB SEAP reporter activity” value (RAW-Dual [3]; agonist: LPS (TLR4) 0.1 ug/mL) was 0.932, the “NF-kB SEAP reporter activity” value (RAW-Dual [3]; [4]) was 0.719 and the “NF-kB SEAP reporter activity” value (RAW-Dual [3]; [5]) was 0.387. The “NF-kB SEAP reporter activity” value (RAW-Dual [3]; [6]) was 0.213.
